# Results: PubChem BioAssay AID485341 (National Center for Advancing Translational Sciences (NCATS), 2010)
# Among all 330,000 compounds or so, about 1,700 (0.52%) were called active. The shares of active, inactive and inconclusive entries below differ from those in the screen. Calls come from the whole dose curve; as a rule, active = well fitted inhibition curve with a large enough effect; inconclusive = small, poorly fitted or top-dose-only effect; inactive = no such curve, though single readings can be large or run the other way. A potency beside an inconclusive call is a rough fit, not a confirmed value.
# Target: Beta-lactamase (Escherichia coli (strain K12)) (UniProt P00811)
# UniProt P00811, sequence (P00811 whole entry, looked up): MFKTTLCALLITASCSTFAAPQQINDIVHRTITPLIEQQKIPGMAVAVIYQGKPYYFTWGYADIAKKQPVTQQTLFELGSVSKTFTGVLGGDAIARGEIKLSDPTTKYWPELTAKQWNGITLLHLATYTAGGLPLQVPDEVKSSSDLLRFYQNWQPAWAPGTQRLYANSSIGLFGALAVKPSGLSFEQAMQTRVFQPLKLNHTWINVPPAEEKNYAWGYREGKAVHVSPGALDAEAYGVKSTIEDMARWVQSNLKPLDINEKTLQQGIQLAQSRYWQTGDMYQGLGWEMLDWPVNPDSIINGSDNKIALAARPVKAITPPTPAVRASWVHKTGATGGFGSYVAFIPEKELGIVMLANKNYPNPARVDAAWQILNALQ
# Experiment: qHTS Inhibitors of AmpC Beta-Lactamase (assay without detergent); note: nearly all actives have a fitted effect of over 20% in size
# Details: AmpC nitrocefin hydrolysis, absorbance 480 nm, 0.0001% Triton; series mostly up to 57.1 µM
# How it was run: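 AmpC (5.3 nM in the dispensed reagent) in 20 mM phosphate pH 7.0 with 0.01% (detergent screen) or 0.0001% Triton X-100 was preincubated with compounds for 15 min at room temperature. Nitrocefin was then added from an 800 uM solution, and hydrolysis was followed at 480 nm.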
# Potency is the fitted concentration of half-maximal effect; tags give direction and shape of the fitted curve.
row,SMILES,Potency
1,CCn1ncc(Br)c1C(=O)Nc1nccs1,"inconclusive: 6.31 µM [inhibitor, single point]"
2,O=c1[nH]c(N2CCOCC2)nc2c1CCCC2,"inconclusive: 0.158 µM [inhibitor, full curve, poor fit]"
3,CCc1ccc(OCC(=O)Nc2ccc(S(=O)(=O)Nc3cc(C)on3)cc2)c(Br)c1,"inconclusive: 1.78 µM [inhibitor, full curve, poor fit]"
4,Cc1ccc(-c2nnn(CC(=O)N(CC(=O)NCc3ccccc3)c3cccc(C)c3C)n2)o1,"inconclusive: 6.31 µM [inhibitor, single point]"
5,COc1ccccc1NC(=S)N/N=C/c1ccc(O)cc1,inactive
6,COc1ccc(CC(C#N)(CO)c2nc3ccccc3[nH]2)cc1 (configuration not stated),inactive
7,S=c1[nH]cnc2scc(-c3ccc(Cl)cc3)c12,active: 8.91 µM
8,CCn1c2ccccc2c2cc(NC(=O)c3cccc(OC)c3)ccc21,"inconclusive: 6.31 µM [inhibitor, single point]"
9,O=C(N/N=C/C1CCCCC1)c1ccccc1-n1cccc1,"inconclusive: 31.6 µM [inhibitor, single point]"
10,O=c1oc2ccccc2n1CCCOc1ccccc1,"inconclusive: 39.8 µM [inhibitor, partial curve, poor fit]"
11,CC1=NN(c2ccc(Cl)cc2)C(=O)C1,"inconclusive: 31.6 µM [inhibitor, single point]"
12,O=C(CCC(=O)N1CCOCC1)NCCc1ccccc1,inactive
13,O=C(COC(=O)c1ccccc1Nc1cccc(C(F)(F)F)c1)NCc1ccco1,inactive
14,Cc1ccccc1-c1nc(CN2CCC(C(=O)N3CCC(C(N)=O)CC3)CC2)c(C)o1,active: 11.2 µM
15,CCN1C(=O)/C(=c2\sc3nc(=O)c(Cc4ccccc4)nn3c2=O)c2ccccc21,inactive
16,CCOC(=O)C1=C(COC(=O)CNC(=O)c2cccc(C)c2)NC(=O)NC1C (configuration not stated),"inconclusive: 39.8 µM [inhibitor, single point]"
17,CCc1cc2cccc(C)c2nc1SCC(=O)NNC(=O)c1ccco1,"inconclusive: 8.91 µM [inhibitor, single point]"
18,S=C(NCc1ccc2[nH]c3c(c2c1)CCCC3)Nc1ccccc1,"inconclusive: 31.6 µM [inhibitor, single point]"
19,Cc1ccc(-c2ccc(C(=O)Nc3cccc(F)c3)o2)c2ccccc12,"inconclusive: 3.16 µM [inhibitor, partial curve]"
20,S=C(NCCNCc1ccccc1)NC1CCCCC1,"inconclusive: 5.62 µM [inhibitor, partial curve, poor fit]"
21,CCOC(=O)N1CCC(Nc2c(NCCCOC)c(=O)c2=O)CC1,active: 0.251 µM
22,Cc1ccc(NC(=O)NC2(C(=O)NCc3ccccc3)CCCCC2)cc1,"inconclusive: 6.31 µM [inhibitor, single point]"
23,C#CCOC(=O)CN1C(=O)c2cccc3cccc(c23)C1=O,inactive
24,COc1ccccc1NS(=O)(=O)c1cccc(C(=O)N/N=C/c2c(C)nn(-c3ccccc3)c2N2CCCC2)c1,"inconclusive: 3.16 µM [inhibitor, single point]"

row,SMILES,Potency
1,COc1ccc(-c2cc(C(F)(F)F)nc(SCC(N)=O)n2)cc1,"inconclusive: 5.62 µM [inhibitor, single point]"
2,Cc1cc(O)c(C=O)c2c1C(=O)Oc1c(CO)c(O)c3c(c1O2)C(O)OC3=O (configuration not stated),inactive
3,COc1ccc(/C=C/C(=O)c2ccc(O)cc2)cc1COc1ccc(F)cc1,active: 11.2 µM
4,CCC(C)NC(=O)C(Cc1ccccc1)n1cccc1 (configuration not stated),active: 0.501 µM
5,CCCCn1c(N)c(N(CCOC)C(=O)C2CCN(c3ncnc4sc(C)c(C)c34)CC2)c(=O)[nH]c1=O,"inconclusive: 39.8 µM [inhibitor, single point]"
6,CCCOC(=O)c1ccc(Oc2cn[nH]c2-c2ccc(O)cc2O)cc1,"inconclusive: 15.8 µM [inhibitor, single point]"
7,COc1ccccc1-n1c(-c2ccc(F)cc2)coc1=O,inactive
8,COc1ccccc1NC(=O)C1=C(C)NC(SCC(=O)c2ccccc2)=C(C#N)C1c1ccco1 (configuration not stated),"inconclusive: 3.98 µM [inhibitor, single point]"
9,O=C(Nc1nc(-c2ccc(S(=O)(=O)N3CCCC3)cc2)cs1)C1COc2ccccc2O1 (configuration not stated),inactive
10,CS(=O)(=O)c1cc([N+](=O)[O-])c(Sc2nc3ccccc3[nH]2)c([N+](=O)[O-])c1,active: 22.4 µM
11,O=C(NCc1ccccn1)C(=O)Nc1nc(-c2ccccc2)cs1,inactive
12,CCOC(=O)c1sc(Nc2nc3c(F)cccc3s2)cc1C,"inconclusive: 22.4 µM [inhibitor, single point]"
13,COc1cccc(/C=C2/NC(=O)NC2=O)c1OCC(=O)Nc1ccccc1,inactive
14,COC(=O)c1ccc2c(c1)sc(=NC(=O)CCS(=O)(=O)c1ccccc1)n2C,"inconclusive: 39.8 µM [inhibitor, single point]"
15,O=C(COC(=O)CCOc1ccccc1)Nc1ccc(Cl)cn1,"inconclusive: 3.98 µM [inhibitor, single point]"
16,CC(=O)Nc1ccc(NC(=O)C(C)OC(=O)CNC(=O)c2cccs2)cc1 (configuration not stated),"inconclusive: 35.5 µM [inhibitor, single point]"
17,NS(=O)(=O)c1ccc(NC(=O)/C=C/c2cn(-c3ccccc3)nc2-c2cccc(Cl)c2)cc1,active: 2.51 µM
18,O=C(CCC1CCCC1)NNC(=O)c1cc2ccccc2cc1O,"inconclusive: 15.8 µM [inhibitor, partial curve]"
19,Cc1ccc(NC(=O)CSc2ncc(-c3ccccc3)n2C(=O)c2ccccc2)cc1,inactive
20,O=C(Nc1cnn(Cc2ccc(Cl)cc2Cl)c1)c1noc2c1CCCC2,"inconclusive: 5.62 µM [inhibitor, single point]"
21,Cc1ccc(C2(C)NC(=O)N(CC(=O)c3ccc(Cl)s3)C2=O)cc1 (configuration not stated),active: 28.2 µM
22,O=C(CSc1nn(-c2ccc(F)cc2)c(=S)s1)NC(=O)NCc1ccco1,"inconclusive: 2 µM [inhibitor, full curve, poor fit]"
23,Cc1cccc(C)c1NC(=O)Cn1nc(-c2ccccc2)nc1-c1ccccc1,"inconclusive: 6.31 µM [inhibitor, single point]"
24,CC1CCc2nn(CC(=O)NCCC3=CCCCC3)cc2C1 (configuration not stated),active: 0.562 µM

row,SMILES,Potency
1,CS(=O)(=O)c1ccc2nc(NC(=O)CN3CCN(Cc4ccccc4)CC3)sc2c1,"inconclusive: 0.141 µM [inhibitor, full curve, poor fit]"
2,Cc1ccc(-c2nnn(CC(=O)N(CC(=O)NC3CCCCC3)c3ccc(F)c(Cl)c3)n2)o1,inactive
3,Cc1ccc2c(CN3CCN(S(=O)(=O)c4ccc(Cl)cc4)CC3)cc(=O)oc2c1C,inactive
4,O=C(N/N=C/c1ccc(-c2ccc(S(=O)(=O)Nc3ncccn3)cc2)o1)c1cc2ccccc2cc1O,active: 20 µM
5,O=C1c2ccccc2C(=O)N1CCC(c1ccc(F)cc1)c1ccco1 (configuration not stated),inactive
6,CC(C)CC(=O)NC(=S)Nc1ccc(N2CCOCC2)cc1,"inconclusive: 22.4 µM [inhibitor, single point]"
7,Cc1cccc(C(=O)/C=C2/c3ccccc3CC(C)(C)N2C)c1,"inconclusive: 5.62 µM [inhibitor, partial curve, poor fit]"
8,Cc1ccc(-n2c(NN)nc3ccccc3c2=O)c(C)c1,"inconclusive: 25.1 µM [inhibitor, single point]"
9,COc1ccc(C(C(=O)NC2CCCC2)N(Cc2ccccc2)C(=O)c2nsc(Cl)c2Cl)cc1 (configuration not stated),"inconclusive: 7.08 µM [inhibitor, single point]"
10,Nc1cc(N)nc(SCc2ccccc2)n1,inactive
11,Cc1cc2oc(C(=O)Nc3ccc(S(=O)(=O)Nc4nccs4)cc3)cc(=O)c2cc1Cl,"inconclusive: 35.5 µM [inhibitor, partial curve]"
12,CCC(C)c1ccc(OCC(=O)Nc2ccc3c(c2)C(=O)NC3=O)cc1 (configuration not stated),"inconclusive: 5.62 µM [inhibitor, partial curve]"
13,O=c1c2c3c(sc2nc2n1CCCCC2)CCCCC3,"inconclusive: 4.47 µM [inhibitor, single point]"
14,N#Cc1cccc(NC(=O)COC(=O)C2CCC2)c1,"inconclusive: 39.8 µM [inhibitor, single point]"
15,COc1cccc(N/N=C/c2cccc(Br)c2O)c1,"inconclusive: 15.8 µM [inhibitor, partial curve, poor fit]"
16,Cc1ccc2cc(C#N)c(SCc3nnc(-c4ccccc4[N+](=O)[O-])o3)nc2c1,inactive
17,O=C(CSc1nc2ccc(NC(=O)CSc3nnnn3Cc3ccccc3)cc2s1)Nc1ccccc1,"inconclusive: 17.8 µM [inhibitor, partial curve]"
18,O=C(c1ccc(CS(=O)c2cccc(Cl)c2)o1)N1CCN(c2ccccn2)CC1 (configuration not stated),inactive
19,COc1ccc(CCNC(=O)c2sc3nc4n(c(=O)c3c2C)CCC4)cc1,"inconclusive: 39.8 µM [inhibitor, single point]"
20,O=C(Nc1ccccc1-c1nnc(SCc2ccc(Cl)cc2)o1)c1ccccc1,"inconclusive: 6.31 µM [inhibitor, single point]"
21,Brc1ccc(-c2csc3ncnc(-n4nnc5ccccc54)c23)cc1,inactive
22,NS(=O)(=O)c1ccc(Cc2ncc(C(F)(F)F)cc2Cl)s1,inactive
23,O=C(CSc1nn(-c2ccccc2)c(=S)s1)Nc1ncccn1,"inconclusive: 28.2 µM [inhibitor, single point]"
24,O=C(c1ccncc1)N1CCN(S(=O)(=O)c2cccc([N+](=O)[O-])c2)CC1,"inconclusive: 31.6 µM [inhibitor, single point]"
